# Out of some 310,000 compounds screened, about 14,000 (4.5%) showed an effect of 50% or more. Effects have a minus sign here. The list shows a part of the results.
# Target: human ether-à-go-go-related gene (hERG) potassium channel (human, UniProt Q12809)
# Experiment: primary screen, population patch clamp on CHO cells stably expressing hERG
# 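Also: peak tail current of the secondary pulse compared with the same well before compound.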
# human ether-à-go-go-related gene (hERG) potassium channel, sequence (Q12809 whole entry, looked up): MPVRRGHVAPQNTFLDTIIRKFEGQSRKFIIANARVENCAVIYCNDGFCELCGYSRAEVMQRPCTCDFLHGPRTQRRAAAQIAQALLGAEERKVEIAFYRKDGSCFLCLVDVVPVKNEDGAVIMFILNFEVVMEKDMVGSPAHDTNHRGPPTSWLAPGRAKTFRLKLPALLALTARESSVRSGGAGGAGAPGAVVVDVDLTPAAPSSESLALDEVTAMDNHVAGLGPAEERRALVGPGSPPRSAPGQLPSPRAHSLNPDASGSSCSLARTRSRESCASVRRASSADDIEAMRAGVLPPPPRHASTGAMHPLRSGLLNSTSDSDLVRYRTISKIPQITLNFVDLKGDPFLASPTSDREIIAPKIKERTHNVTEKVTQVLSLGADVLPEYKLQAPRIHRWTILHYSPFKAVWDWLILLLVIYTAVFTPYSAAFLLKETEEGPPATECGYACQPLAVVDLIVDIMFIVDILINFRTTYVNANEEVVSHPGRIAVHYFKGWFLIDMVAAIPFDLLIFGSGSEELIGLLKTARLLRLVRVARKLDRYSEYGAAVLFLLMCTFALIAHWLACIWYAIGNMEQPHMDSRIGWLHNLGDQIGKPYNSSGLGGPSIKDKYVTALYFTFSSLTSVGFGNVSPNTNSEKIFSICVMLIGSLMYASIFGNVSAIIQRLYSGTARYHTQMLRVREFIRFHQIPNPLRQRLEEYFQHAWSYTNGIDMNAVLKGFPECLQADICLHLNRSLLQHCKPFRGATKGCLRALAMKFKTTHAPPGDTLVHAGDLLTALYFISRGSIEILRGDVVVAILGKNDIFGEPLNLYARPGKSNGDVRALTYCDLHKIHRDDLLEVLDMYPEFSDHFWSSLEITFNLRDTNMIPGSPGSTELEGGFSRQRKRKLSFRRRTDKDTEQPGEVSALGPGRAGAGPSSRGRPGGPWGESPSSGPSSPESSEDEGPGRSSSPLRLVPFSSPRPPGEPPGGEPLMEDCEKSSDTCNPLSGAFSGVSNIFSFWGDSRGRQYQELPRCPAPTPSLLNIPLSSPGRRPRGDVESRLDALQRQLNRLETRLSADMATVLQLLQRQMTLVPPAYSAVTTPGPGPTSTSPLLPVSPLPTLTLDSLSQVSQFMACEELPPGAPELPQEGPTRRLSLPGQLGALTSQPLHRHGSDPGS
row,Compound,"hERG current change (%, negative = inhibition) at 10uM [%]"
1,CCOC(=O)CN1C(=O)N(CC)C(C)=C(C(=O)OC)[C@@H]1c1ccccc1,4.35
2,Cc1ccsc1C(=O)N(CC(C)C)c1c(N)n(Cc2ccccc2)c(=O)[nH]c1=O,9.63
3,CCc1ccccc1NC(=O)CN(C)C(=O)c1cc(C2CC2)nc2c1cnn2C(C)C,11.5
4,COc1ccc(N2CCN(C(=S)NCc3ccc(C)cc3)CC2)cc1,-18.5
5,COc1ccc(C)cc1NC(=O)CN(C)C1CCCCC1,-15
6,NC(=O)C1CCN(C(=S)NC2CC3C=CC2C3)CC1 (stereo not drawn),16.2
7,C/C(=N\N(C)C)c1ccc(OCCOc2ccc([N+](=O)[O-])cc2)cc1,17.7
8,CSc1nnc2c3cc(F)ccc3n(C)c2n1,14.5
9,CC(=O)Oc1ccc2c(=O)c(-c3nc4ccccc4s3)coc2c1,21.3
10,O=CN1CCN(C(=O)Cc2ccc([N+](=O)[O-])cc2)CC1,-25.6
11,CCOc1ccccc1OCCCC(=O)N(C)CC(=O)Nc1cc(C)ccc1C,3.63
12,COc1cccc(C2CC(c3cccs3)=NN2C(=O)CSC2=NCCS2)c1OC (stereo not drawn),-14.3
13,O=C(c1ccc(F)cc1)N1CCN(S(=O)(=O)c2ccc(Br)cc2)CC1,-5.63
14,CCCCSc1nn[nH]n1,11.7
15,C[C@H]1C(=O)N(C)CCN1C(=O)c1ccccc1OC1CCN(S(C)(=O)=O)CC1,41.5
16,O=C(COc1ccccc1F)NC1CC1,0.681
17,C=C[C@@H]1c2ccccc2N(S(=O)(=O)c2ccc(C)cc2)[C@H](c2ccc(OC(C)=O)cc2)C1(C#N)C#N,32.9
18,CC1(NC(=S)Nc2ccc(NC(=S)NC3(C)CCS(=O)(=O)C3)cc2)CCS(=O)(=O)C1 (stereo not drawn),19.4
19,Cc1ccc(OC(=O)c2cccc(S(=O)(=O)N(C)C)c2)c(-n2nc3ccccc3n2)c1,-4.3
20,COc1ccc(NC(=O)c2ccc3c(=O)n4c(nc3c2)CCCCC4)cc1,-40
21,Cc1ccc(SCC(=O)O/N=C(\N)c2cccnc2)cc1,-6.55

row,Compound,"hERG current change (%, negative = inhibition) at 10uM [%]"
1,Cc1ccc(C2C=C(c3ccccc3)Nc3ncnn32)cc1 (stereo not drawn),-64.7
2,COc1ccc(NC(=O)CC2C(=O)N(CCc3ccccc3)C(=S)N2Cc2cccnc2)cc1 (stereo not drawn),-23.8
3,CN=C(Nc1ccc(C(=O)OC)s1)c1ccccc1,-4
4,CCn1c(N2CCN(S(=O)(=O)c3ccc(F)cc3)CC2)nc2ccccc21,-36.2
5,CCOC(=O)N1CCN(Cc2cc(=O)oc3ccc4ccccc4c23)CC1,3.35
6,O=C(c1nc2ncccn2n1)N1CCc2ccccc2C1,-3.79
7,Cc1c(Br)ccc(NC(=O)c2ccccc2[N+](=O)[O-])c1C,14.1
8,COCc1nnc(NS(=O)(=O)c2ccc(C)cc2)s1,9.7
9,O=C1CCN(Cc2nnnn2CC2CCCO2)c2ccccc2N1 (stereo not drawn),2.18
10,Cc1ccc(S(=O)(=O)N2CCN(C(=O)CSc3nc4ccccc4c(=O)[nH]3)CC2)c(C)c1,11.6
11,CCCn1nc2cc(C(=O)NCc3ccc(C)cc3)ccc2c1OC,1.15
12,COc1cc(/C=C(\C#N)C(=O)Nc2ccccn2)ccc1O,13.6
13,O=C1/C(=C/c2ccccc2Cl)SC(=S)N1CCC(=O)N1CCCCC1CCO (stereo not drawn),-8.3
14,COc1cc(C2NC(=O)NC(c3ccccc3)=C2C(C)=O)c(Br)c(Br)c1O (stereo not drawn),1.43
15,Cc1cccc(NC(=O)C2CCCN2C(=O)Oc2ccccc2)c1C (stereo not drawn),-4.43
16,CC(=O)c1cc(C)ccc1OC(=O)CCN1C(=O)C2C3c4ccccc4C(c4ccccc43)C2C1=O (stereo not drawn),-0.13
17,C/C=C(/C)C(=O)Nc1cccc(C2=NOC3(C2)C[C@@H](C(N)=O)N(C(=O)CC)C3)c1 (stereo partly drawn),3.34
18,CC(C)c1cc(C(=O)N/N=C/c2ccoc2)c(O)c(C(C)C)c1,2.22
19,S=c1[nH]c(-c2ccccc2)cn1/N=C/c1cccs1,10.4
20,COC(=O)c1cc(OC)c(OC)cc1NC(=O)CSc1nnnn1Cc1ccccc1,-29.9
21,Cc1ccc(C)c(NC(=O)c2ccc3c(c2)N(Cc2ccc(F)cc2)C(=O)CS3=O)c1 (stereo not drawn),-6.89

row,Compound,"hERG current change (%, negative = inhibition) at 10uM [%]"
1,COc1ccc(S(=O)(=O)/N=C2\C=C(Nc3ccc(O)cc3)C(=O)c3ccccc32)cc1,11.9
2,CCc1ccc2nc(NC(=O)C3CSC4(C)CCC(=O)N34)sc2c1 (stereo not drawn),-18.3
3,O=C(c1ccco1)N1CCCC(c2nc(-c3ccc(S(=O)(=O)NCc4ccccc4)cc3)no2)C1 (stereo not drawn),-19.5
4,CCOc1ccc(C(=O)NCC(=O)OCc2c(F)cccc2Cl)cc1OCC,0.837
5,COc1ccc(-c2cc(C(=O)N3CCN(c4ncccn4)CC3)c3ccccc3n2)c(OC)c1,-25.8
6,CCCCn1c(N)c(N(CCOC)C(=O)COC(=O)CSc2cc(C)c3ccccc3n2)c(=O)[nH]c1=O,-1.11
7,Cc1ccc(C)c(CN2CCNC2=O)c1,8.76
8,COc1cc(/C=C2\N=C(c3ccccc3)OC2=O)ccc1OC(C)=O,17.2
9,CC(C)CN(C(=O)C1CSC2(C)CCC(=O)N12)c1c(N)n(Cc2ccccc2)c(=O)[nH]c1=O (stereo not drawn),8.5
10,CCOc1cc(CNCc2cccnc2)ccc1OCC(=O)NC(C)(C)C.Cl,-7.29
11,Cn1c(CCNC(=O)c2ccccc2F)nnc1SCc1nc2ccccc2c(=O)[nH]1,3.65
12,O=C(CCC(=O)Nc1nnc(C2CCCCC2)s1)NCc1ccc(F)cc1,19.7
13,CC(C)n1c(C(=O)OCC(=O)NCc2ccc3c(c2)OCO3)cc2occc21,-0.55
14,COc1ccc(CCC(=O)N2CCN(c3ccc([N+](=O)[O-])cc3)CC2)cc1OC,-81.5
15,COc1ccc(OC)c(S(=O)(=O)N2CCC(C(=O)NCc3ccccn3)CC2)c1,16.6
16,Cn1c(Cn2c(=O)sc3ccccc32)nnc1SCC(=O)NCc1ccc(F)cc1,7.17
17,COc1ccc(-c2cc(C(=O)Nc3c(Cl)cc(Cl)cc3Cl)c3ccccc3n2)cc1OC,6.81
18,CNC(=O)Nc1cccc(-c2cc(-c3c(Cl)cccc3Cl)no2)c1,2.41
19,Cc1ccc(S(=O)(=O)N(C)CC(=O)Nc2cccc3c2CCCC3)cc1,-2.82
20,CCOC(=O)c1c(C)[nH]c(C)c1C(=O)COC(=O)c1ccc(Cl)c(S(N)(=O)=O)c1,3.98
21,CCc1ccc(NC(=O)CN(CC(=O)Nc2ccc(CC)cc2)CC(C)O)cc1 (stereo not drawn),-28.5

row,Compound,"hERG current change (%, negative = inhibition) at 10uM [%]"
1,O=c1cc(-c2ccccc2)[nH][nH]1,-5.02
2,CO[C@H]1/C=C/O[C@@]2(C)Oc3c(C)c(O)c4c(O)c(c(C=NN5CCN(C)CC5)c(O)c4c3C2=O)NC(=O)/C(C)=C\C=C\[C@H](C)[C@H](O)[C@@H](C)[C@@H](O)[C@@H](C)[C@H](OC(C)=O)[C@@H]1C,2.29
3,COc1cccc(OCCOc2cccc(/C=N/n3cnnc3)c2)c1,-4.9
4,O=C(Cn1c(-c2ccccc2)noc1=O)NCc1ccccc1,6.47
5,O=C(NNC(=O)c1cc([N+](=O)[O-])ccc1Cl)c1cccs1,20.8
6,COc1ccccc1CNS(=O)(=O)c1csc(C(N)=O)c1,20.1
7,Cc1cc(C)nc(SCC(=O)N2CCCCC2)n1,-4.66
8,COCCN1CCN(C(=O)C2CCC(=O)N(CCCc3ccccc3)C2)CC1 (stereo not drawn),16.6
9,CC(C)CCNC(=O)CN(C(=O)CCC(=O)Nc1nccs1)c1ccc2c(c1)OCCO2,-4.45
10,Cc1nc(-c2ccc(C(=O)Nc3cccc(Br)c3)cc2)cs1,7.02
11,COc1ccc(/C=N/NC(=O)c2cccc(NC(=O)c3ccccc3Cl)c2)c(OC)c1,6.14
12,O=C(N/C(=C\c1ccccc1Cl)C(=O)N1CCOCC1)c1ccc([N+](=O)[O-])cc1,-66
13,COc1ccc(C(CC(=O)NCc2ccccc2)Sc2n[nH]c(-c3ccccc3)n2)cc1 (stereo not drawn),14
14,O=C(NNc1cccc(Cl)n1)Nc1cccc(Cl)c1,-2.54
15,CCN1CCN(C(=O)c2ccc(C)c(S(=O)(=O)Nc3cccc(C)c3)c2)CC1,-16.3
16,Cn1c(O)c(/C=N/c2ncccn2)c(=O)n(C)c1=O,-9.26
17,CCC1=Nc2cc(C(=O)NCCN3CCOCC3)ccc2Sc2ccc(Br)cc21,-26.1
18,COc1ccccc1[As](=O)(O)CC(O)COc1ccc(Cl)cc1Cl (stereo not drawn),4.97
19,COc1ccc(C(=O)NNC(=O)CN2CCN(c3nc(-c4ccccc4)cs3)CC2)cc1,11
20,CN(C)c1ccc(N=C/C=C2\N(C)c3ccccc3C2(C)C)cc1,-82.8
21,Cc1cnc(C(=O)OCC(=O)NC(=O)NC(C)C)cn1,10.3

# From article PMC4336329 (PLoS ONE, 2015)
